Test results from PMC12040169 (PLOS Biology, 2025).
Some of the results follow.

test system: T1, C. trachomatis L2/434/Bu expressing GFP (CTL2-GFP); parameters: species or system HeLa; C. trachomatis total inclusion area by high-content imaging, normalised to DMSO; settings: total inclusion area; 28.5 h, 10 µM; inhibitor
T1 construct: L2/434/Bu GFP intracellular growth in HeLa cells
Outline: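 Bulk GFP and resorufin signals were read first. Wells were then fixed, stained with Hoechst and imaged to detect GFP inclusions and host nuclei. MICs followed the previously described calculation.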

SMILES | % of control remaining
CCn1c(CC2CCN(C(=O)CCCn3cnnn3)CC2)nn(C)c1=O [CBK306537] | 69.995
CCC1=NC(c2ccccc2Cl)N(O)C1(C)C (stereo not drawn) [CBK026466] | 74.3486
c1csc(-c2csc3ncnc(NCCCN4CCOCC4)c23)c1 [CBK267166] | 105.838
Nc1cccc(-c2cc(N3CCCC3CO)n3nccc3n2)c1 (stereo not drawn) [CBK037049] | 109.202
O=C(NCc1csc2c1CCCC2)N1CCC(CO)CC1 [CBK307476] | 61.0379
COc1cccc(/C=C/c2nc(C#N)c(NCCCN3CCOCC3)o2)c1 [CBK269506] | 89.2921
COc1ccc(C2(C(=O)N3CCC(c4ccncc4)CC3)CC2)cc1 [CBK285476] | 70.9567
Cc1cc(C)n(C(C)CC(=O)NCc2ccccc2-n2ccnc2)n1 (stereo not drawn) [CBK281518] | 122.651
Cc1cc(C)c(C(=O)N2CCN(CCNC(=O)C3CCCC3)CC2)[nH]1 [CBK305315] | 95.4062
CC(=O)Nc1cccc(C(=O)N2CCOC(CCc3ccccc3)C2)c1 (stereo not drawn) [CBK304629] | 51.7367
CCC(C)(C)c1ccc(S(=O)(=O)N2CCCN(Cc3cn(C)c4ccccc34)CC2)cc1 [CBK062871] | 44.8357
CN(C)CCNC(=O)c1cc(-c2ccncc2)nc2ccc(Br)cc12 [CBK267728] | 104.197
COC(=O)c1oc(-c2ccc(OC)cc2)c(-c2ccc(OC)cc2)c1C(N)=O [CBK001957] | 95.0283
Cc1ccccc1-n1nnnc1C(c1ccccc1)N(C)Cc1cccc([N+](=O)[O-])c1 (stereo not drawn) [CBK262878] | 59.3062
Cc1cccc(NC(=O)C(c2ccccc2)N2CCOCC2)c1 (stereo not drawn) [CBK269331] | 59.5783
Cc1ccc(S(=O)(=O)NCCn2cnc([N+](=O)[O-])n2)cc1 [CBK266270] | 112.852
CC(=O)c1c(-c2cccc(C(=O)N(C)C3CCN(C)C3)c2)cnn1C (stereo not drawn) [CBK306633] | 53.9855
CC(C)C(=O)N1CCC(n2nc(-c3cccs3)oc2=O)CC1 [CBK282422] | 102.301
COc1cnc(-c2cccc(C(F)(F)F)c2)c(NC(=O)Cc2ccccc2)n1 [CBK145308] | 82.2546
O=C(O)CNCCC(=O)c1ccc([N+](=O)[O-])cc1 [CBK020544] | 91.5228
O=C(O)CCCn1cc(NC(=O)Cc2ccccc2)cn1 [CBK269821] | 85.0189
COc1ccc(-c2nn(C)c(=O)c3ccccc23)cc1CNC(=O)c1cc([N+](=O)[O-])ccc1OC [CBK266229] | 97.868
Cc1nn(C)c(C)c1CCC(=O)N1CCCCC1c1ncc(-c2cccc(F)c2)[nH]1 (stereo not drawn) [CBK291150] | 92.055
COc1cccc(/C=C/C2=NN(c3cccc(F)c3)C(c3cccc(OC)c3OC)C2)c1OC (stereo not drawn) [CBK260983] | 86.2486
COc1cc2c(cc1OC)C(C)N(S(=O)(=O)c1cn(C)cn1)CC2 (stereo not drawn) [CBK057314] | 99.0739
COCCN(Cc1cnn(C)c1)C(=O)c1nc2ccccn2c1F [CBK306892] | 99.0146

SMILES | % of control remaining
CN1C(=O)CC2(C1=O)C(=O)N(Cc1ccc3ccccc3n1)c1ccc(Cl)cc12 (stereo not drawn) [CBK075494] | 95.3541
CC(C)c1ccc(NC(=O)CSc2nnc(Cc3cccc4ccccc34)o2)cc1 [CBK267371] | 99.5993
COCc1cc(C[C@@H]2C[C@H](NC(=O)C(C)(C)C)C2(C)C)no1 [CBK289251] | 103.711
O=[N+]([O-])c1ccc(CN2CCC(N3CCN(CCO)CC3)CC2)cc1 [CBK264621G] | 106.917
CC(O)CNc1nccnc1-c1ccc(S(C)(=O)=O)cc1 (stereo not drawn) [CBK037669] | 94.507
CN1CC(=O)N(CC(=O)N2CC=C(c3ccccc3)CC2)c2ccccc2C1=O [CBK294433] | 104.769
O=C(O)c1cc(C(=O)O)cc(N2C(=O)C3C4C=CC(C4)C3C2=O)c1 (stereo not drawn) [CBK261193] | 94.0773
CCOC(=O)c1c(NS(=O)(=O)Cc2ccccc2[N+](=O)[O-])sc2c1CCCC2 [CBK004651] | 90.9907
COc1cc(CN2CCN(c3ccccn3)CC2)ccc1O [CBK261537] | 89.3762
O=C(Nc1cccnc1)c1cnc(-c2ccc(Cl)cc2)c(-c2cccnc2)c1 [CBK037568] | 69.1714
O=C(C1CCC1)N1CCC(c2nnc(-c3ccsc3)o2)CC1 [CBK283405] | 101.102
CC1(C)C=Cc2cc(/C(N)=N/O)ccc2O1 [CBK006095] | 57.8478
CCc1ccc(Nc2nc(N)nc(CN3CCN(c4ccccn4)CC3)n2)cc1 [CBK270064] | 108.082
CN1CC(c2ccccc2)C2(CCNCC2)C1 (stereo not drawn) [CBK282225] | 88.9601
COc1cccc(OC)c1OCCN1CCC(CNC(=O)Nc2cccc(C(F)(F)F)c2)CC1 [CBK051512T] | 98.5699
O=C(c1cccnc1)N1CCN(S(=O)(=O)c2ccccc2[N+](=O)[O-])CC1 [CBK264227] | 128.819
CCCCOc1ccc(-c2nnn(C(C)C(=O)O)n2)cc1 (stereo not drawn) [CBK070540] | 54.6935
Cc1ccc(NC(=O)NC(=O)C2CCN(S(C)(=O)=O)CC2)cc1 [CBK034863] | 95.586
COc1ccc(OC)c(NC(=O)c2ccc3nccnc3c2)c1 [CBK268997] | 84.2495
COc1ccc(CNC(=O)C2CCCN(S(=O)(=O)c3cccs3)C2)cc1 (stereo not drawn) [CBK304628] | 37.822
COc1nccnc1N1CCN(CCCC#N)CC1 [CBK084225] | 95.185
O=C(NCCc1c[nH]cn1)c1ccccc1-n1cccc1 [CBK161000] | 92.175
Cc1cc(C)nc(N2CCC(C3CC=CCN(CCc4ccccc4)C3=O)CC2)n1 (stereo not drawn) [CBK285575] | 76.3487
O=C(O)CCc1ccc(-c2cccs2)n1-c1ccc(Cl)c(Cl)c1 [CBK264797] | 121.899
Cn1nc2c(cc1=O)CN(C(=O)c1ccoc1)CC2 [CBK304330] | 73.1411
